PubChem BioAssay AID1461 (National Center for Advancing Translational Sciences (NCATS), 2008)
About 2,300 (1%) of roughly 220,000 compounds were called active. Inconclusive results, whose numbers are uncertain, are shown with a selection of clear calls. Calls follow the shape of the dose curve; as a rule, active = well fitted inhibition curve with a large enough effect; inconclusive = small, poorly fitted or top-dose-only effect, or effect the other way; inactive = no such curve, though single readings can be large or run the other way. Potencies of inconclusive entries are left out as doubtful fits.

Each compound was assayed against Neuropeptide S receptor (Homo sapiens) (UniProt Q6W5P4) (assay: qHTS Assay for Antagonists of the Neuropeptide S Receptor: cAMP Signal Transduction). Conditions: CHO-NPSR cells, cAMP TR-FRET, antagonist mode; series mostly up to 38.3 µM.
UniProt Q6W5P4, sequence (Q6W5P4 whole entry, looked up): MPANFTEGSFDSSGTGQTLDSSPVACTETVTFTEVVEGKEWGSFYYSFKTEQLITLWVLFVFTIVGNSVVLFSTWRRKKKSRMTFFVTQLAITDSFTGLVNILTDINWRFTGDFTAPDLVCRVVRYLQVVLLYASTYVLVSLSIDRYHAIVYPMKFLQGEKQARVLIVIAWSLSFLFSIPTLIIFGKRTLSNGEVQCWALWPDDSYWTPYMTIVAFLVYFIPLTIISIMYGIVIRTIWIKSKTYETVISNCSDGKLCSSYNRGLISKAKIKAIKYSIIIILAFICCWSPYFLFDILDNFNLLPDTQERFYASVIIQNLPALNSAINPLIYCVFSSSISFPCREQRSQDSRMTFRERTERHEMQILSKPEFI
Also: nearly all actives have a fitted effect of over 50% in size.
Potency is read from the fitted curve at half-maximal effect; tags tell the direction and shape of the fitted curve.

Q: With `O=C(CC1Nc2ccccc2NC1=O)Nc1ccc2c(c1)OCO2` (centres undefined) as the compound, how does the Potency read?
A: Its Potency is “inactive”.

Q: `COCCn1nnnc1C(c1cc(OC)ccc1OC)N1CCc2ccccc2C1` (centres undefined) was tested. Which Potency did it give?
A: The Potency was inconclusive [inhibitor, single point].

Q: With `Fc1cnc(N/N=C/c2ccc(-c3ccc(Br)cc3)o2)nc1N1CCOCC1` as the compound, how does the Potency read?
A: The Potency was inconclusive [inhibitor, single point].

Q: For `c1ccc(Nc2nc3ccccc3o2)cc1`, which Potency is on record?
A: The Potency was inconclusive [activator, partial curve].

Q: With `Cc1cc(C(=O)CSc2nncs2)c(C)n1Cc1ccco1` as the compound, how does the Potency read?
A: The Potency was “inactive”.

Q: How did the Potency turn out when `c1ccc(-n2nnnc2OCCOc2nnnn2-c2ccccc2)cc1` was run?
A: The Potency was inconclusive [inhibitor, partial curve, poor fit].

Q: How did the Potency turn out when `COc1ccc(C2c3ccc(O)cc3Oc3ncn(Cc4ccccc4)c(=N)c32)cc1OC` (centres undefined) was run?
A: Its Potency is inconclusive [activator, single point].

Q: With `O=C(COC(=O)c1n[nH]c2ccccc12)NC(=O)NC1CCCCC1` as the compound, how does the Potency read?
A: The Potency was inconclusive [inhibitor, partial curve].

Q: `CCOC(=O)Cn1c(=NC(=O)C2COc3ccccc3O2)sc2cc(S(N)(=O)=O)ccc21` (centres undefined) was tested. Which Potency did it give?
A: Its Potency is “inactive”.

Q: `Cn1c(N2CCN(C(=O)Nc3ccc(C(F)(F)F)cc3)CC2)nc2ccccc21` was tested. Which Potency did it give?
A: The Potency was inconclusive [inhibitor, single point].

Q: Which Potency does the source give for `COc1cccc(-n2ccnc2SCC(=O)Nc2nccs2)c1` here?
A: The Potency was “inactive”.

Q: With `CCOC(=O)c1sc(NC(=O)c2ccc(S(=O)(=O)N(C)C)cc2)nc1C` as the compound, how does the Potency read?
A: Its Potency is inconclusive [activator, single point].

Q: `COc1ccc(/C=N/Nc2nn3cnnc3c3ccccc23)cc1` was tested. Which Potency did it give?
A: Its Potency is “inactive”.

Q: How did the Potency turn out when `Oc1c(CN2CCN(c3ccc(F)cc3)CC2)cc(Cl)c2cccnc12` was run?
A: The Potency was inconclusive [inhibitor, partial curve].

Q: How did the Potency turn out when `CSc1cc(-c2ccc(Cl)cc2)c(C(=O)N2CCCC2)s1` was run?
A: The Potency was inconclusive [inhibitor, single point].

Q: With `O=C(O)c1ccc(NC2=C(Cl)C(=O)c3ccccc3C2=O)cc1` as the compound, how does the Potency read?
A: Its Potency is inconclusive [activator, partial curve].

Q: `COc1ccc2[nH]c3c(N4CCc5ccccc5C4)ncnc3c2c1` was tested. Which Potency did it give?
A: The Potency was inconclusive [inhibitor, single point].

Q: `CC(C)(CO)Nc1nc(Nc2ccccc2)nc(Nc2ccccc2)n1` was tested. Which Potency did it give?
A: Its Potency is inconclusive [inhibitor, single point].

Q: With `Cc1cc(C)c(C#N)c(SCC(=O)Nc2nnc(-c3ccccc3)s2)n1` as the compound, how does the Potency read?
A: Its Potency is inconclusive [inhibitor, single point].

Q: `O=C(Nc1cccnc1)C1CCC(CNS(=O)(=O)c2cccc3nsnc23)CC1` (centres undefined) was tested. Which Potency did it give?
A: The Potency was “inactive”.

Q: How did the Potency turn out when `O=C(CCc1nc(-c2ccccc2)no1)NC1CCCCC1` was run?
A: The Potency was “inactive”.

Q: With `O=C(CSc1cccc[n+]1[O-])Nc1cc2c(cc1Cl)C(=O)c1ccccc1C2=O` as the compound, how does the Potency read?
A: Its Potency is “inactive”.

Q: For `CCCCCCCCNc1ncnc2ccccc12`, which Potency is on record?
A: The Potency was inconclusive [inhibitor, single point].

Q: With `O=C(Nc1ccc(Cl)cn1)c1ccc(COc2ccccc2Br)o1` as the compound, how does the Potency read?
A: The Potency was “inactive”.

Q: With `O=S(=O)(c1ccc(OCC(O)CNCc2ccco2)c(Cl)c1)N1CCOCC1` (centres undefined) as the compound, how does the Potency read?
A: Its Potency is inconclusive [inhibitor, full curve, poor fit].

Q: How did the Potency turn out when `COc1ccccc1N1C(N)=NC(N)=NC1(C)C` was run?
A: Its Potency is inconclusive [inhibitor, single point].

Q: Which Potency does the source give for `CCCCOc1ccc(-c2nnn(C(C)C(=O)OCC)n2)cc1` (centres undefined) here?
A: The Potency was inconclusive [inhibitor, partial curve].

Q: Which Potency does the source give for `CCN(CC)C(=O)N1c2ccccc2C=Cc2ccccc21` here?
A: Its Potency is inconclusive [inhibitor, single point].

Q: With `CCOC(=O)c1ccc(NC(=O)C2(c3ccc(Cl)cc3)CCCC2)cc1` as the compound, how does the Potency read?
A: Its Potency is inconclusive [inhibitor, single point].

Q: `CCOC(=O)CSc1nnc2n(Cc3ccccc3)c(=O)c3c4c(sc3n12)CCC4` was tested. Which Potency did it give?
A: The Potency was inconclusive [inhibitor, partial curve, poor fit].

Q: `Nc1nnc(SCC(=O)N2CCN(c3ccccc3)CC2)n1-c1ccccc1` was tested. Which Potency did it give?
A: Its Potency is inconclusive [inhibitor, single point].

Q: Which Potency does the source give for `O=C(OCC(=O)N1CCOCC1)c1ccccc1SCC(=O)N1CCCC1` here?
A: Its Potency is inconclusive [inhibitor, single point].

Q: With `CCN(CC)c1ccc2cc(C=O)c(=O)oc2c1` as the compound, how does the Potency read?
A: Its Potency is inconclusive [inhibitor, partial curve].

Q: With `Cc1cc(N)c2ccccc2[n+]1CCCCCCCCCC[n+]1c(C)cc(N)c2ccccc21` as the compound, how does the Potency read?
A: Its Potency is inconclusive [inhibitor, partial curve].

Q: For `Cc1cccc(NC(=O)CSc2cc(C)c(C#N)c3nc4ccccc4n23)c1`, which Potency is on record?
A: Its Potency is inconclusive [inhibitor, single point].

Q: `COc1ccc(OC)c(Nc2cc(-c3ccccc3)nc(N)n2)c1` was tested. Which Potency did it give?
A: The Potency was inconclusive [activator, single point].

Q: `CCN(CC(=O)Nc1ccc([N+](=O)[O-])cc1OC)c1ccccc1` was tested. Which Potency did it give?
A: The Potency was inconclusive [inhibitor, partial curve].

Q: `COc1ccc(CCCC(=O)NC2CCCCC2)cc1` was tested. Which Potency did it give?
A: Its Potency is “inactive”.

Q: Which Potency does the source give for `CCOc1ccc(C(C(=O)Nc2ccc(F)cc2)N(C(=O)Cn2nnc3ccccc32)C2CC2)cc1` (centres undefined) here?
A: The Potency was inconclusive [inhibitor, single point].

Q: How did the Potency turn out when `CCN(CC)C(=O)CC(c1ccc(F)cc1)c1ccco1` (centres undefined) was run?
A: The Potency was “inactive”.

Q: `CN1N=C2c3ccccc3CCCC2C1c1ccc(F)cc1` (centres undefined) was tested. Which Potency did it give?
A: The Potency was inconclusive [activator, partial curve].

Q: For `Cc1ccc(CN2C(=O)c3ccccc3NC23CCN(Cc2ccccc2)CC3)cc1`, which Potency is on record?
A: The Potency was inconclusive [inhibitor, single point].

Q: How did the Potency turn out when `C=CCc1cccc(C=Nc2cccn3cc(-c4ccccc4)nc23)c1O` was run?
A: The Potency was inconclusive [inhibitor, single point].

Q: Which Potency does the source give for `CCCCC1(C)OC(=O)C(=Cc2ccc(-c3ccc(Cl)c(C(=O)O)c3)o2)C(=O)O1` (centres undefined) here?
A: Its Potency is inconclusive [activator, single point].
